The source of these data is article PMC9911399, “Two distinct binding modes provide the RNA-binding protein RbFox with extraordinary sequence specificity”.

Numbering of substitutions follows the chain as printed; changes in the protein carry UniProt numbers. The list shows a part of the results.

T1: RBFOX1 RRM RbFoxmut (Fox-RRM*) (Homo sapiens, UniProt Q9NWB1 109-208, R118D;E147R;N151S;E152T)
T1 sequence: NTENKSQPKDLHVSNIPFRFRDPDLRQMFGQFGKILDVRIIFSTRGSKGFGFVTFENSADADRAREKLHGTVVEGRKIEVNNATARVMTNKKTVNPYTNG

B1: GGAUGCU (DNA:RNA)
RNA: GGGAGACCGGAAUUCAGAUUGUCCGGAUGCUUUAAAUCCCGUCGUAGCCACCA
DNA 1: CAATCTGAATTCCGGTCTCCC
DNA 2: TGGTGGCTACGACGGGATT
B2: GGACGGU (DNA:RNA)
RNA: B1 RNA with U28C, C30G
DNA 1: CAATCTGAATTCCGGTCTCCC
DNA 2: TGGTGGCTACGACGGGATT
B3: GCUUAGC (DNA:RNA)
RNA: B1 RNA with G26C, A27U, G29A, C30G, U31C
DNA 1: CAATCTGAATTCCGGTCTCCC
DNA 2: TGGTGGCTACGACGGGATT
B4: CUCGUCG (DNA:RNA)
RNA: B1 RNA with G25C, G26U, A27C, U28G, G29U, U31G
DNA 1: CAATCTGAATTCCGGTCTCCC
DNA 2: TGGTGGCTACGACGGGATT
B5: GGUCAUG (DNA:RNA)
RNA: B1 RNA with A27U, U28C, G29A, C30U, U31G
DNA 1: CAATCTGAATTCCGGTCTCCC
DNA 2: TGGTGGCTACGACGGGATT
B6: CAGCCAG (DNA:RNA)
RNA: GGGAGACCGGAAUUCAGAUUGUCCCAGCCAGUUAAAUCCCGUCGUAGCCACCA
DNA 1: CAATCTGAATTCCGGTCTCCC
DNA 2: TGGTGGCTACGACGGGATT
B7: AACUAUA (DNA:RNA)
RNA: B6 RNA with C25A, G27C, C28U, C29A, A30U, G31A
DNA 1: CAATCTGAATTCCGGTCTCCC
DNA 2: TGGTGGCTACGACGGGATT
B8: UGGCGAA (DNA:RNA)
RNA: B6 RNA with C25U, A26G, C29G, G31A
DNA 1: CAATCTGAATTCCGGTCTCCC
DNA 2: TGGTGGCTACGACGGGATT
B9: GGCUGCG (DNA:RNA)
RNA: B1 RNA with A27C, U31G
DNA 1: CAATCTGAATTCCGGTCTCCC
DNA 2: TGGTGGCTACGACGGGATT
B10: ACCUAAU (DNA:RNA)
RNA: B1 RNA with G25A, G26C, A27C, G29A, C30A
DNA 1: CAATCTGAATTCCGGTCTCCC
DNA 2: TGGTGGCTACGACGGGATT
B11: CACGGAU (DNA:RNA)
RNA: B6 RNA with G27C, C28G, C29G, G31U
DNA 1: CAATCTGAATTCCGGTCTCCC
DNA 2: TGGTGGCTACGACGGGATT
B12: GCUGGUG (DNA:RNA)
RNA: B1 RNA with G26C, A27U, U28G, C30U, U31G
DNA 1: CAATCTGAATTCCGGTCTCCC
DNA 2: TGGTGGCTACGACGGGATT
B13: GGCAAUC (DNA:RNA)
RNA: B1 RNA with A27C, U28A, G29A, C30U, U31C
DNA 1: CAATCTGAATTCCGGTCTCCC
DNA 2: TGGTGGCTACGACGGGATT
B14: CUAAACG (DNA:RNA)
RNA: B6 RNA with A26U, G27A, C28A, C29A, A30C
DNA 1: CAATCTGAATTCCGGTCTCCC
DNA 2: TGGTGGCTACGACGGGATT
B15: AUCGAGU (DNA:RNA)
RNA: B1 RNA with G25A, G26U, A27C, U28G, G29A, C30G
DNA 1: CAATCTGAATTCCGGTCTCCC
DNA 2: TGGTGGCTACGACGGGATT
B16: UGACCGG (DNA:RNA)
RNA: B6 RNA with C25U, A26G, G27A, A30G
DNA 1: CAATCTGAATTCCGGTCTCCC
DNA 2: TGGTGGCTACGACGGGATT
B17: AGGCGGG (DNA:RNA)
RNA: B6 RNA with C25A, A26G, C29G, A30G
DNA 1: CAATCTGAATTCCGGTCTCCC
DNA 2: TGGTGGCTACGACGGGATT
B18: UUCGGUU (DNA:RNA)
RNA: B1 RNA with G25U, G26U, A27C, U28G, C30U
DNA 1: CAATCTGAATTCCGGTCTCCC
DNA 2: TGGTGGCTACGACGGGATT
B19: CAACAGA (DNA:RNA)
RNA: B6 RNA with G27A, C29A, A30G, G31A
DNA 1: CAATCTGAATTCCGGTCTCCC
DNA 2: TGGTGGCTACGACGGGATT
B20: GGGGUCU (DNA:RNA)
RNA: B1 RNA with A27G, U28G, G29U
DNA 1: CAATCTGAATTCCGGTCTCCC
DNA 2: TGGTGGCTACGACGGGATT
B21: ACCGGGC (DNA:RNA)
RNA: B1 RNA with G25A, G26C, A27C, U28G, C30G, U31C
DNA 1: CAATCTGAATTCCGGTCTCCC
DNA 2: TGGTGGCTACGACGGGATT
B22: AAAAAGA (DNA:RNA)
RNA: B6 RNA with C25A, G27A, C28A, C29A, A30G, G31A
DNA 1: CAATCTGAATTCCGGTCTCCC
DNA 2: TGGTGGCTACGACGGGATT
B23: UGAUAAG (DNA:RNA)
RNA: B1 RNA with G25U, G29A, C30A, U31G
DNA 1: CAATCTGAATTCCGGTCTCCC
DNA 2: TGGTGGCTACGACGGGATT
B24: ACGUCGA (DNA:RNA)
RNA: B6 RNA with C25A, A26C, C28U, A30G, G31A
DNA 1: CAATCTGAATTCCGGTCTCCC
DNA 2: TGGTGGCTACGACGGGATT
B25: CGGUAGG (DNA:RNA)
RNA: B6 RNA with A26G, C28U, C29A, A30G
DNA 1: CAATCTGAATTCCGGTCTCCC
DNA 2: TGGTGGCTACGACGGGATT
B26: CGUUGUG (DNA:RNA)
RNA: B1 RNA with G25C, A27U, C30U, U31G
DNA 1: CAATCTGAATTCCGGTCTCCC
DNA 2: TGGTGGCTACGACGGGATT
B27: GCGAUGU (DNA:RNA)
RNA: B1 RNA with G26C, A27G, U28A, G29U, C30G
DNA 1: CAATCTGAATTCCGGTCTCCC
DNA 2: TGGTGGCTACGACGGGATT
B28: UCGAAAU (DNA:RNA)
RNA: B6 RNA with C25U, A26C, C28A, C29A, G31U
DNA 1: CAATCTGAATTCCGGTCTCCC
DNA 2: TGGTGGCTACGACGGGATT
B29: CGUCGUA (DNA:RNA)
RNA: B6 RNA with A26G, G27U, C29G, A30U, G31A
DNA 1: CAATCTGAATTCCGGTCTCCC
DNA 2: TGGTGGCTACGACGGGATT
B30: AUGGAAC (DNA:RNA)
RNA: B6 RNA with C25A, A26U, C28G, C29A, G31C
DNA 1: CAATCTGAATTCCGGTCTCCC
DNA 2: TGGTGGCTACGACGGGATT
B31: GAUGAUG (DNA:RNA)
RNA: B6 RNA with C25G, G27U, C28G, C29A, A30U
DNA 1: CAATCTGAATTCCGGTCTCCC
DNA 2: TGGTGGCTACGACGGGATT

This experiment deals with T1, RBFOX1 RRM RbFoxmut (Fox-RRM*). The experiment is described as follows: EMSA; HiTS-Eq, 1 nM pool, 10 min; buffer printed only for the single-RNA assays: 10 mM Tris pH 7.5, 150 mM NaCl, 3.4 mM EDTA, 0.001% NP-40, 30 C. The note with it: tags: His6 N-terminal (pET28a); label: 5' 32P. In a few lines: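 A pool of RNA with 7 randomized nucleotides, 5′-radiolabelled and with DNA-annealed flanks, was equilibrated at 1 nM for 10 min in 50 µL with purified RbFox RRM, wild type or mutant, across increasing protein concentrations. Free RNA was separated by 8% native PAGE, excised, reverse-transcribed, barcoded by PCR and sequenced. Relative association constants were obtained from read-count changes of each RNA species versus the control reaction and normalised to the cognate motif.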
As for B1, the binding signal was 0.142 KA relative to UGCAUGU.

Take B2: the binding signal was 0.119 KA relative to UGCAUGU.

For B3, the binding signal is 0.0988 KA relative to UGCAUGU.

In the case of B4, the binding signal was 0.0942 KA relative to UGCAUGU.

With B5, the binding signal was 0.512 KA relative to UGCAUGU.

On to B6, for which the binding signal is 0.0687 KA relative to UGCAUGU.

Consider B7, for which the binding signal was 0.108 KA relative to UGCAUGU.

Turning to B8, the binding signal was 0.122 KA relative to UGCAUGU.

Consider B9, for which the binding signal was 0.14 KA relative to UGCAUGU.

In the case of B10, the binding signal is 0.082 KA relative to UGCAUGU.

Regarding B11, the binding signal is 0.0869 KA relative to UGCAUGU.

For the molecule B12, the binding signal is 0.114 KA relative to UGCAUGU.

Consider B13, for which the binding signal was 0.11 KA relative to UGCAUGU.

For the molecule B14, the binding signal was 0.0745 KA relative to UGCAUGU.

As to B15, the binding signal was 0.149 KA relative to UGCAUGU.

As to B16, the binding signal was 0.044 KA relative to UGCAUGU.

Regarding B17, the binding signal was 0.119 KA relative to UGCAUGU.

As for B18, the binding signal was 0.0538 KA relative to UGCAUGU.

As for B19, the binding signal is 0.0476 KA relative to UGCAUGU.

Turning to B20, the binding signal is 0.118 KA relative to UGCAUGU.

Regarding B21, the binding signal is 0.0846 KA relative to UGCAUGU.

In the case of B22, the binding signal is 0.0796 KA relative to UGCAUGU.

With B23, the binding signal is 0.115 KA relative to UGCAUGU.

On to B24, for which the binding signal is 0.0987 KA relative to UGCAUGU.

Consider B25, for which the binding signal was 0.0838 KA relative to UGCAUGU.

As for B26, the binding signal is 0.17 KA relative to UGCAUGU.

As for B27, the binding signal was 0.151 KA relative to UGCAUGU.

As for B28, the binding signal was 0.0789 KA relative to UGCAUGU.

Take B29: the binding signal is 0.0427 KA relative to UGCAUGU.

B30: the binding signal was 0.127 KA relative to UGCAUGU.

In the case of B31, the binding signal is 0.145 KA relative to UGCAUGU.
